Where “and” joins values, the source holds several entries; their conditions need not be identical. Identical values can stand only once. The shares of active, inactive and inconclusive entries below differ from those in the screen. For some assays here: Potencies of inconclusive entries are doubtful fits and often do not repeat. Calls of active or inactive are those of the source. Unless noted, calls follow the shape of the dose curve; as a rule, active = well fitted curve in the direction sought with a large enough effect in the repeat runs; inconclusive = weak or mixed curves; inactive = no such curve, though single readings can be large; an effect the other way counts as inactive or inconclusive.
Legend:
[1] = molecular target: Aryl hydrocarbon receptor (Homo sapiens) (UniProt P35869); assay: qHTS assay to identify small molecule that activate the aryl hydrocarbon receptor (AhR) signaling pathway (AID 743085); also: nearly all actives have a fitted effect of over 15% in size; also: potency is read from the fitted curve at half-maximal effect
UniProt P35869, sequence (P35869 whole entry, looked up): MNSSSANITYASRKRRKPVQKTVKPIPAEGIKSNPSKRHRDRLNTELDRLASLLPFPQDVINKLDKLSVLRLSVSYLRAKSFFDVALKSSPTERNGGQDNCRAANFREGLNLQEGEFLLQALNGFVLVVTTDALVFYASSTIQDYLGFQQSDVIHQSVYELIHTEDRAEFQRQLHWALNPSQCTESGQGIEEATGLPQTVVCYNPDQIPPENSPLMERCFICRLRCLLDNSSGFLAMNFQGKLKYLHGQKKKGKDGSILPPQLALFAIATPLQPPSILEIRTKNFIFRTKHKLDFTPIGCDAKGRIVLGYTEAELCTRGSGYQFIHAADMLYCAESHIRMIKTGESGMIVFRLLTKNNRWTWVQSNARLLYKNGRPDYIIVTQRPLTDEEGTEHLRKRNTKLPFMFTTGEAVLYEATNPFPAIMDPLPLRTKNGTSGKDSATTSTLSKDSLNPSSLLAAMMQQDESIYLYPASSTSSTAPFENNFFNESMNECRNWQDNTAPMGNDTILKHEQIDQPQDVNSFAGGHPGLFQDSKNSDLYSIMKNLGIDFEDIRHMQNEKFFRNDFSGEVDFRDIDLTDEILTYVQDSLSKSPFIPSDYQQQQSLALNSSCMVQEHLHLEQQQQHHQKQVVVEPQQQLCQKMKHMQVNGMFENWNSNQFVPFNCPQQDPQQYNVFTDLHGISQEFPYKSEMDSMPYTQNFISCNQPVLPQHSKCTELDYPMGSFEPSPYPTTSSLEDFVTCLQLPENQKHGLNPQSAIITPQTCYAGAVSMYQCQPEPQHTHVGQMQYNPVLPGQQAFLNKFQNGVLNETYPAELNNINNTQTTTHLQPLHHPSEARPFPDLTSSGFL
Procedure, shortened: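 Luminescence (ONE-Glo) from a dioxin-responsive-element luciferase reporter in HG2L7.5c1 HepG2 cells after 24 hr compound exposure at 37C; viability measured by CellTiter-Fluor fluorescence beforehand.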

[2] = qHTS RealTime-Glo MT Cell Viability Assay in HEK293 cells - 40 hour (AID 1224874); settings: RealTime-Glo luminescence; max response: active compounds read low; also: nearly all actives have a fitted effect of over 50% in size; also: potency is read from the fitted curve at half-maximal effect; as to max response: % is scaled to controls: 0 for no effect and ±100 for the full control effect
Procedure, shortened: (§1)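 600 HEK293 cells per well, dispensed already mixed with RealTime-Glo MT reagents. Compound dosing came 5 h later. The same wells were read for luminescence at 0, 8, 16, 24, 32 and 40 h of exposure at 37 C.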

[3] = qHTS assay to identify small molecule agonists of the vitamin D receptor (VDR) signaling pathway - cell viability counter screen (AID 743224); also: % is scaled to controls: 0 for no effect and ±100 for the full control effect; nearly all actives have a fitted effect of over 50% in size
Procedure, shortened: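 Compounds were pin-transferred onto VDR-bla cells plated 4 h earlier; following 16 h incubation at 37C, cell viability was quantified by CellTiter-Glo luminescence after 30 min at room temperature.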

[4] = A CellTox Green Cytotoxicity Assay to monitor cytotoxicity in HepG2 cells - 24 hour (AID 1224878); also: potency is read from the fitted curve at half-maximal effect; nearly all actives have a fitted effect of over 45% in size
Procedure, shortened: (§2)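 First, HepG2 cells (600/well) mixed with reagent were plated; second, after 5 h at 37 C they received compounds via pintool; third, fluorescence was measured at 0 h through 40 h at 8 h intervals.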

[5] = qHTS RealTime-Glo MT Cell Viability Assay in HEK293 cells - 8 hour (AID 1224887); also: nearly all actives have a fitted effect of over 50% in size; also: potency is read from the fitted curve at half-maximal effect
Procedure, shortened: as §1

[6] = Human pregnane X receptor (PXR) small molecule agonists, qHTS cell viability counter screen (AID 1346977); also: nearly all actives have a fitted effect of over 50% in size; also: potency is read from the fitted curve at half-maximal effect
Procedure, shortened: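 Same-well viability read: CellTiter-Fluor added after 23 hr compound exposure, fluorescence measured 1 hr later. Cells were PXR-Luc HepG2 seeded at 2,000/well in 5% charcoal-stripped FBS medium, rested 5 hr before dosing at 37 C.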

[7] = A CellTox Green Cytotoxicity Assay to monitor cytotoxicity in HEK293 cells - 40 hour (AID 1224871); also: nearly all actives have a fitted effect of over 45% in size; also: potency is read from the fitted curve at half-maximal effect
Procedure, shortened: (§3)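 Dead-cell fluorescence measured kinetically: asymmetric cyanine dye, HEK293, 600 cells/well, 5 h settle, 23 nL cpd/DMSO, 37 C, reads 0–40 h every 8 h.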

[8] = molecular target: Estrogen receptor (Homo sapiens) (UniProt P03372); assay: qHTS assay to identify small molecule antagonists of the estrogen receptor alpha (ER-alpha) signaling pathway (AID 743069; active = well fitted curve in the direction sought with a large enough effect in the signal ratio in the repeat runs, not every such curve was filed as active; inconclusive = weak or mixed curves, or effect the other way; inactive = no such curve, though single readings can be large or run the other way; the % refers to the signal ratio; also: potency is read from the fitted curve at half-maximal effect; as to activity, negative = inhibition: % is scaled to controls: 0 for no effect and ±100 for the full control effect); settings: HEK293 ER-alpha-UAS-bla, beta-lactamase ratio, antagonist mode; activity, negative = inhibition: at 69.4 µM (top of the series) unless noted
UniProt P03372, sequence (P03372 whole entry, looked up): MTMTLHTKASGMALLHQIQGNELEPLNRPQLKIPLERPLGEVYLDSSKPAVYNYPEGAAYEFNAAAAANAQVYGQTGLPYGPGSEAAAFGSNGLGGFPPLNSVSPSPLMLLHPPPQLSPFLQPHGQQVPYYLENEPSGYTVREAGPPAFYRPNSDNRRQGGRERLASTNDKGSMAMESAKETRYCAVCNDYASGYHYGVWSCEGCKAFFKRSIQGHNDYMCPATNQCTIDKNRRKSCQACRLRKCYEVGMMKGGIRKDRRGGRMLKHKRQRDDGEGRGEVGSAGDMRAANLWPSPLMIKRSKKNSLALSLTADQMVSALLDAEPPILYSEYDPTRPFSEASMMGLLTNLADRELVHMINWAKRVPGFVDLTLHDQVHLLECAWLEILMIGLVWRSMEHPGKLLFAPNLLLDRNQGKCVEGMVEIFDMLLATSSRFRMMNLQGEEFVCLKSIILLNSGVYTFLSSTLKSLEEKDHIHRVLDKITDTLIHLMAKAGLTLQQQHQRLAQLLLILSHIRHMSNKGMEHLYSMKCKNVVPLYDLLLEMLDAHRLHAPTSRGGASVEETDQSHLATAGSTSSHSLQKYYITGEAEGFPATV
Procedure, shortened: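 A 17beta-estradiol challenge was applied right after compound transfer to ER-alpha-UAS-bla HEK293 cells previously kept in charcoal-stripped serum. Plates stood 18 hr at 37C and 5% CO2; fluorescence was read following 2 hr FRET substrate loading at room temperature.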

[9] = qHTS assay to identify small molecule agonists of H2AX - cell viability counter screen (AID 1224847; calls by dose curve; also: potency is read from the fitted curve at half-maximal effect; nearly all actives have a fitted effect of over 30% in size)
Procedure, shortened: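 Counter-screen for viability: CellTiter-Glo ATP luminescence read after 3 h compound treatment (15-point titration, 0.76% DMSO final) of CHO-K1 cells at 37C, with 30 min room-temperature reagent incubation.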

[10] = A CellTox Green Cytotoxicity Assay to monitor cytotoxicity in HepG2 cells - 32 hour (AID 1224883)
Procedure, shortened: as §2

[11] = Caspase-3/7 induction in CHO-K1 cells by small molecules, qHTS cell viability counter screen (AID 1346979); also: % is scaled to controls: 0 for no effect and ±100 for the full control effect; nearly all actives have a fitted effect of over 35% in size
Procedure, shortened: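 Cytotoxicity counter screen: CellTiter-Fluor added to compound-treated wild-type CHO-K1 cells at 16 h (37C, 5% CO2), fluorescence measured 1 h later; same wells as caspase-3/7 measurement.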

[12] = molecular target: Peroxisome proliferator-activated receptor delta (Homo sapiens) (UniProt Q03181); assay: qHTS assay to identify small molecule agonists of the peroxisome proliferator-activated receptor delta (PPARd) signaling pathway (AID 743212; calls by dose curve;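 also: HEK293H cells with PPARd UAS beta-lactamase reporter GeneBLAzer system; % is scaled to controls: 0 for no effect and ±100 for the full control effect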); settings: HEK293H PPARd-UAS-bla, beta-lactamase FRET ratio, 17 h; activation: at 62.6 µM (top of the series) unless noted
UniProt Q03181, sequence (Q03181 whole entry, looked up): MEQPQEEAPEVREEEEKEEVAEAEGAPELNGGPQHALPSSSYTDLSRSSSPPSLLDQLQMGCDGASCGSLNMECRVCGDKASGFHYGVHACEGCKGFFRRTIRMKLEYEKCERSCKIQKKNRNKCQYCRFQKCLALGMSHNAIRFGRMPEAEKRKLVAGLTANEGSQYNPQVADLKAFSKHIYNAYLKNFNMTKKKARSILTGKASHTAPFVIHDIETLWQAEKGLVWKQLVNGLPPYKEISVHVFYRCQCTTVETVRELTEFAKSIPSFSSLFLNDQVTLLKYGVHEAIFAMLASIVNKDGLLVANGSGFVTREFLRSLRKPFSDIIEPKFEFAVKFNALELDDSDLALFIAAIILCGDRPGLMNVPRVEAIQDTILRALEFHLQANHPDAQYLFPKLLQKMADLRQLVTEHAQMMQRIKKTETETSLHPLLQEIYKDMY
Procedure, shortened: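 Beta-lactamase reporter read by fluorescence (LiveBLAzer B/G FRET, 2 h, room temperature). Test agents, in DMSO, incubated at 37 C with PPARd-bla HEK293H cells.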

[13] = qHTS assay to identify small molecule antagonists of the estrogen receptor alpha (ER-alpha) signaling pathway using the BG1 cell line (AID 743080; calls by dose curve;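 also: BG1 cells stimulated with 17beta-estradiol alongside compound; % is scaled to controls: 0 for no effect and ±100 for the full control effect; nearly all actives have a fitted effect of over 25% in size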); settings: BG1Luc4E2 ERE-luciferase antagonist mode, luminescence; activity change, negative = inhibition: at 70.3 µM (top of the series) unless noted
Procedure, shortened: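 Luminescence from a 4×ERE-luciferase reporter in BG1-Luc-4E2 cells served as read-out. Cells, pre-cultured 5 days in stripped-serum phenol-red-free medium, were exposed to compound with 17beta-estradiol co-stimulation for 21.5 h at 37 C.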

[14] = molecular target: Cytochrome P450 3A4 (Homo sapiens) (UniProt P08684); assay: Cytochrome P450 Family 3 Subfamily A Member 4 (CYP3A4) small molecule antagonists: luciferase reporter qHTS assay (AID 1671201); also: nearly all actives have a fitted effect of over 50% in size; also: potency is read from the fitted curve at half-maximal effect
UniProt P08684, sequence (P08684 whole entry, looked up): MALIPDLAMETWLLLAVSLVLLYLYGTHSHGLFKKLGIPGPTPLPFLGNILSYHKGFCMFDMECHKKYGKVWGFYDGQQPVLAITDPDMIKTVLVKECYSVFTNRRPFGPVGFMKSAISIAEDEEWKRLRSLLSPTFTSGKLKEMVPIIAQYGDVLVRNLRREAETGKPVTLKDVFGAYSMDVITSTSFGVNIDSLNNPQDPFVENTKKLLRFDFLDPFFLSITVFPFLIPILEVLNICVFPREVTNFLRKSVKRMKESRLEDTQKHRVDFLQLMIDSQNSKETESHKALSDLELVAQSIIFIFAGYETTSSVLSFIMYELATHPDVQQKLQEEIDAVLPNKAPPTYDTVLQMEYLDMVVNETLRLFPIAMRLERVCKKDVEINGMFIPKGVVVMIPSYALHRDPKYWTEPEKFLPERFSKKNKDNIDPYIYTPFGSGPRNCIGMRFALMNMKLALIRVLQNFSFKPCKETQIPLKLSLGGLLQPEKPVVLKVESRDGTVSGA
Procedure, shortened: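 Recombinant human CYP3A4 converts a proluciferin substrate to luciferin over 1 h at room temperature after NADPH regeneration solution is added (compound preincubated 10 min); detection reagent stops reaction, luminescence read 20 min later as relative units.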

[15] = qHTS assay to identify small molecule antagonists of the glucocorticoid receptor (GR) signaling pathway - cell viability counter screen (AID 720693); settings: GR-bla HeLa viability, CellTiter-Glo luminescence, 18 h, with 5 nM dexamethasone present; viability change, negative = cytotoxic: at 58.5 µM (top of the series); also: nearly all actives have a fitted effect of over 55% in size; also: potency is read from the fitted curve at half-maximal effect
[16] = molecular target: Peroxisome proliferator-activated receptor gamma (Homo sapiens) (UniProt P37231); assay: qHTS assay to identify small molecule agonists of the peroxisome proliferator-activated receptor gamma (PPARg) signaling pathway (AID 743094; active = well fitted activation curve with a large enough effect in the signal ratio in the repeat runs, not every such curve was filed as active; inconclusive = weak or mixed curves, or effect the other way; inactive = no such curve, though single readings can be large or run the other way; the % refers to the signal ratio; also: % is scaled to controls: 0 for no effect and ±100 for the full control effect); settings: HEK293H PPARg-UAS-bla, beta-lactamase FRET ratio, 17 h; activation: at 57 µM (top of the series) unless noted
UniProt P37231, sequence (P37231 whole entry, looked up): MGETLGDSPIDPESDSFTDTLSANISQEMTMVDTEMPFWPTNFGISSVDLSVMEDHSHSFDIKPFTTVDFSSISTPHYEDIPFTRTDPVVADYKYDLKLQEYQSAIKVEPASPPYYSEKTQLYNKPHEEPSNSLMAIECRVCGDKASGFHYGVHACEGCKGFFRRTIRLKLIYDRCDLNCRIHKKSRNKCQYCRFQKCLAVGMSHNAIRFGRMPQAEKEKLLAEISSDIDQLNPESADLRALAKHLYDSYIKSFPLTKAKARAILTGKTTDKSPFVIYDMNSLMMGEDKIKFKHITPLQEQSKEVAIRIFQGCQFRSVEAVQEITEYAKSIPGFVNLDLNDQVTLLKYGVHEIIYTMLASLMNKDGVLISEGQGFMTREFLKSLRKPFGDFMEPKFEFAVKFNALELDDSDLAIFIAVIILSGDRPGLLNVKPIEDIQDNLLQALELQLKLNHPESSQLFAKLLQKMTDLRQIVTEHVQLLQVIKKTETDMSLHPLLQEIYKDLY
Procedure, shortened: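 Reporter activation was scored by fluorescence of cleaved LiveBLAzer B/G substrate (1 h, room temperature) in PPARg-bla HEK293H cells previously treated 17 h at 37C with DMSO-dissolved compounds.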

[17] = molecular target: Nuclear receptor subfamily 1 group I member 2 (Homo sapiens) (UniProt O75469); assay: Human pregnane X receptor (PXR) small molecule agonists, qHTS assay (AID 1346982); also: potency is read from the fitted curve at half-maximal effect; nearly all actives have a fitted effect of over 35% in size
UniProt O75469, sequence (O75469 whole entry, looked up): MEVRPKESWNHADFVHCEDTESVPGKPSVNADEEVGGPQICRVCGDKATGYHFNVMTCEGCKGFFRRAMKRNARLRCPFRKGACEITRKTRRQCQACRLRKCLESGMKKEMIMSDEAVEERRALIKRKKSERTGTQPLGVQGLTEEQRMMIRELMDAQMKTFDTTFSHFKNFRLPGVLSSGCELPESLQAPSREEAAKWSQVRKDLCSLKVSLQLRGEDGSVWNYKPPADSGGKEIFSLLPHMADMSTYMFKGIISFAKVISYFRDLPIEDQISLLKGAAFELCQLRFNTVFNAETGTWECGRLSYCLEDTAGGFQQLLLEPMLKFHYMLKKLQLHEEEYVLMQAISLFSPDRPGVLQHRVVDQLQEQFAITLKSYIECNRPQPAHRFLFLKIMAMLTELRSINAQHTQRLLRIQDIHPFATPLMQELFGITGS
Procedure, shortened: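 Reporter HepG2 cells expressing PXR-Luc are cultured in charcoal-stripped FBS (5%), treated with compounds for 24 hr at 37 C, and assayed by ONE-Glo luminescence after 30 min at room temperature.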

[18] = qHTS assay to identify aromatase inhibitors - cell viability counter screen (AID 743084); settings: MCF-7 aro ERE viability, CellTiter-Fluor, 24 h; activity change, negative = cytotoxicity: at 70.3 µM (top of the series) unless noted;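 also: cells stimulated with testosterone during compound exposure; % is scaled to controls: 0 for no effect and ±100 for the full control effect; nearly all actives have a fitted effect of over 55% in size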
[19] = A CellTox Green Cytotoxicity Assay to monitor cytotoxicity in HEK293 cells - 32 hour (AID 1224881); also: nearly all actives have a fitted effect of over 40% in size; also: potency is read from the fitted curve at half-maximal effect
Procedure, shortened: as §3
Tags tell the direction and shape of the fitted curve or compound fluorescence and quenching.

For `CC(=O)Nc1ccccc1O`, the Potency [1] was inconclusive: 38.6 µM [activator, partial curve] and the max response [2] was inactive: 2.65%.
With `Cc1cccc(C)c1NC(=O)CC12CCCN1CCC2` the Potency [3] was “inactive”, the max response [2] was inactive: 5.91% and the Potency [4] was inconclusive: 26.8 µM [activator, single point].
For `Cc1nc2n(c(=O)c1CCN1CCC(C(=O)c3ccc(F)cc3)CC1)CCS2`, the Potency [5] was active: 6.74 µM and the Potency [6] was inconclusive: 33.5 µM [cytotoxic, partial curve, poor fit].
In the case of `CS(C)(=O)=O`, the Potency [7] is reported as inconclusive: 21.9 µM [activator, single point].
With `COC(=O)CCCC(=O)O` the activity, negative = inhibition [8] was inconclusive: -37.6% and the Potency [9] was inconclusive: 1.79 µM [cytotoxic, single point].
With `CCCCCCCCOCCC#N` the Potency [4] was inconclusive: 19.5 µM [activator, single point] and the Potency [10] was inconclusive: 21.9 µM [activator, single point].
With `O=C(O)CCC(=O)O` the max response [2] was inactive: 9.17% and inactive: -2.49% and inactive: -2.75%.
For `Nc1cc(Cl)cc(S(=O)(=O)O)c1O`, the Potency [11] was “inactive”.
For `Cc1nc(C2CCCCC2)c(-c2ccc(S(N)(=O)=O)c(F)c2)o1`, the activation [12] was inconclusive: -7.87% and the Potency [5] was inconclusive: 26.8 µM [cytotoxic, single point].
With `Cc1ccc(C(=O)c2ccc(CC(=O)O)n2C)cc1` the Potency [8] was inconclusive: 10.2 µM [partial curve], the Potency [13] was “inactive” and the Potency [4] was inconclusive: 30.1 µM [activator, single point]. The Potency [10] was inconclusive: 26.8 µM [activator, single point] and the Potency [11] was “inactive”.
In the case of `CN(C)c1cc(NC(=O)CNC(C)(C)C)c(O)c2c1C[C@H]1C[C@H]3[C@H](N(C)C)C(=O)C(C(N)=O)=C(O)[C@@]3(O)C(=O)C1=C2O`, the Potency [6] is reported as “inactive” and the Potency [14] is reported as “inactive”.
In the case of `C1CCSC1`, the Potency [2] is reported as inconclusive: 61.6 µM [cytotoxic, single point] and the Potency [5] is reported as inconclusive: 54.9 µM [cytotoxic, single point].
In the case of `C[N+]1([O-])CCOCC1`, the Potency [15] is reported as inconclusive: 54.8 µM [rising, single point].
With `c1ccc2cnccc2c1` the Potency [16] was “inactive”, the Potency [17] was inconclusive: 68.6 µM [activator, partial curve, poor fit] and the Potency [14] was inconclusive: 10 µM [inhibitor, full curve].
For `CCC(=O)CC(C)CC` (centres undefined), the activity change, negative = inhibition [14] was inactive: -0.0732% [at 0.435 µM].
For `O=C(O)c1cc(C(=O)O)cc([N+](=O)[O-])c1`, the Potency [1] was “inactive”.
With `O=S(=O)(O)c1cc(O)ccc1O` the Potency [9] was inconclusive: 1.79 µM [cytotoxic, single point] and the Potency [4] was inconclusive: 21.9 µM [activator, single point].
With `O=S1(=O)N=C(O)c2ccccc21` the Potency [15] was inconclusive: 11 µM [rising, partial curve, poor fit], the Potency [18] was “inactive” and the Potency [3] was “inactive”. For the same compound, the Potency [10] was inconclusive: 2.47 µM [activator, full curve, poor fit].
In the case of `CC(C)C[C@@H]1[C@H](c2ccccc2)OC(=O)N1CCCN1CCCCCC1`, the Potency [6] is reported as inconclusive: 29.8 µM [cytotoxic, partial curve, poor fit] and the Potency [17] is reported as inconclusive: 26.6 µM [activator, partial curve, poor fit].
In the case of `CC(C)CCO`, the Potency [8] is reported as “inactive”.
In the case of `C=C(C)C(=O)OCCOC1CC2CC1C1C=CCC21` (centres undefined), the Potency [19] is reported as “inactive” and the Potency [17] is reported as inconclusive: 0.0465 µM [activator, full curve, poor fit].
In the case of `COC(=O)CC(C)=O`, the Potency [15] is reported as “inactive” and the Potency [5] is reported as “inactive”.
With `Oc1cn2c(n1)Nc1ccc(Cl)c(Cl)c1C2` the Potency [13] was “inactive” and the Potency [17] was inconclusive: 8.2 µM [activator, partial curve, poor fit].
In the case of `O=C1CC[C@H](C(=O)N2CCCCC2)N1`, the Potency [8] is reported as inconclusive: 21.3 µM [cytotoxic, partial curve, poor fit].
With `NC(CO)C(=O)NNCc1ccc(O)c(O)c1O` (centres undefined) the Potency [1] was inconclusive: 21.1 µM [activator, partial curve] and the Potency [17] was inconclusive: 11.9 µM [activator, single point].
In the case of `CC(C)(C)NCC(O)c1cc(O)cc(O)c1` (centres undefined), the Potency [15] is reported as inconclusive: 0.952 µM [rising, single point].
With `CN(C)CCN(C)CCN(C)C` the Potency [7] was “inactive”.
In the case of `c1cnc(N2CCN(Cc3ccc4c(c3)OCO4)CC2)nc1`, the Potency [1] is reported as inconclusive: 29.8 µM [activator, partial curve, poor fit].
For `C1=CCCC1`, the Potency [7] was inconclusive: 54.9 µM [activator, single point], the Potency [2] was inconclusive: 54.9 µM [rising, single point] and the Potency [19] was inconclusive: 54.9 µM [activator, single point]. The Potency [5] was inconclusive: 54.9 µM [rising, single point].
For `CCCCCCC1(C)CCC(=O)O1` (centres undefined), the Potency [9] was inconclusive: 1.6 µM [cytotoxic, partial curve].
In the case of `Nc1c2c(nc3c1CCC3)CCCC2`, the Potency [1] is reported as inconclusive: 33.5 µM [activator, partial curve, poor fit].
For `O=C(O)/C=C\C(=O)O`, the Potency [12] was “inactive”.

Source: PubChem BioAssay (Tox21)
